Experimental data reported in US11857560B2, “Pharmaceutical compositions comprising substituted nucleotides and nucleosides for treating viral infections” (priority 2013, dated 2024).

Experiments:
HCV replicon GT1a = assay: Inhibition of HCV replicons, GT1a; type: cell-based; conditions: Hepatitis C virus, wild-type replicon
HCV Replicon GT-1b = assay: microbe, parasite or virus in culture; conditions: Hepatitis C virus, GT1B, read-out: HCV Replicon Assay EC90 uM
HCV replicon GT1b = assay: Inhibition of HCV replicons, GT1b; type: cell-based; conditions: Hepatitis C virus, wild-type replicon

Row | SMILES | EC50 (HCV replicon GT1a) [µM] | EC90 (HCV Replicon GT-1b) [µM] | EC50 (HCV replicon GT1b) [µM]
1 | CC(C)OC(=O)[C@H](C)NP(=O)(OC[C@H]1O[C@@H](n2ccc(=O)[nH]c2=S)[C@](C)(O)C1O)Oc1ccccc1 (some centres unmarked) [ENUC-01911-2] | 0.0765 | – | –
2 | CC(C)OC(=O)[C@H](C)NP(=O)(OC[C@H]1O[C@@H](n2ccc(=S)[nH]c2=O)[C@](C)(O)C1O)Oc1ccccc1 (some centres unmarked) [ENUC-01920-1] | – | 35.7 | –
3 | CC(C)OC(=O)[C@H](C)NP(=O)(OC[C@H]1O[C@@H](n2ccc(=O)[nH]c2=O)[C@](C)(O)C1O)Oc1ccccc1 (some centres unmarked) [ENUC-01982-1] | – | 0.168 | –
4 | CC(C)OC(=O)[C@H](C)N[P@](=O)(OC[C@H]1O[C@@H](n2ccc(=O)[nH]c2=S)[C@](C)(O)C1O)Oc1ccccc1 (some centres unmarked) [ENUC-02023-1] | 0.0265 | – | 0.0491
5 | CC(C)OC(=O)[C@H](C)N[P@](=O)(OC[C@H]1O[C@@H](n2ccc(=O)[nH]c2=O)[C@](C)(F)C1O)Oc1ccccc1 (some centres unmarked) [ENUC-02025-1] | – | 0.0803 | –
6 | CC(C)OC(=O)[C@H](C)N[P@@](=O)(OC[C@H]1O[C@@H](n2ccc(=O)[nH]c2=O)[C@](C)(F)C1O)Oc1ccccc1 (some centres unmarked) [ENUC-02026-1] | – | 0.893 | –
7 | CC(C)OC(=O)[C@H](C)NP(=O)(OC[C@H]1O[C@@H](n2ccc(=O)[nH]c2=[Se])[C@](C)(O)C1O)Oc1ccccc1 (some centres unmarked) [ENUC-02058-1] | – | 43.6 | –
